Measured values reported in PMC4336329 (PLoS ONE, 2015).
The campaign covered roughly 310,000 compounds. About 2,200 (0.71%) showed an effect of 50% or more. Effects have a minus sign here. Some of the results follow.

What follows are molecules tested against human ether-à-go-go-related gene (hERG) potassium channel (human, UniProt Q12809) (assay: primary screen, population patch clamp on CHO cells stably expressing hERG).
Chain of human ether-à-go-go-related gene (hERG) potassium channel (Q12809 whole entry, looked up): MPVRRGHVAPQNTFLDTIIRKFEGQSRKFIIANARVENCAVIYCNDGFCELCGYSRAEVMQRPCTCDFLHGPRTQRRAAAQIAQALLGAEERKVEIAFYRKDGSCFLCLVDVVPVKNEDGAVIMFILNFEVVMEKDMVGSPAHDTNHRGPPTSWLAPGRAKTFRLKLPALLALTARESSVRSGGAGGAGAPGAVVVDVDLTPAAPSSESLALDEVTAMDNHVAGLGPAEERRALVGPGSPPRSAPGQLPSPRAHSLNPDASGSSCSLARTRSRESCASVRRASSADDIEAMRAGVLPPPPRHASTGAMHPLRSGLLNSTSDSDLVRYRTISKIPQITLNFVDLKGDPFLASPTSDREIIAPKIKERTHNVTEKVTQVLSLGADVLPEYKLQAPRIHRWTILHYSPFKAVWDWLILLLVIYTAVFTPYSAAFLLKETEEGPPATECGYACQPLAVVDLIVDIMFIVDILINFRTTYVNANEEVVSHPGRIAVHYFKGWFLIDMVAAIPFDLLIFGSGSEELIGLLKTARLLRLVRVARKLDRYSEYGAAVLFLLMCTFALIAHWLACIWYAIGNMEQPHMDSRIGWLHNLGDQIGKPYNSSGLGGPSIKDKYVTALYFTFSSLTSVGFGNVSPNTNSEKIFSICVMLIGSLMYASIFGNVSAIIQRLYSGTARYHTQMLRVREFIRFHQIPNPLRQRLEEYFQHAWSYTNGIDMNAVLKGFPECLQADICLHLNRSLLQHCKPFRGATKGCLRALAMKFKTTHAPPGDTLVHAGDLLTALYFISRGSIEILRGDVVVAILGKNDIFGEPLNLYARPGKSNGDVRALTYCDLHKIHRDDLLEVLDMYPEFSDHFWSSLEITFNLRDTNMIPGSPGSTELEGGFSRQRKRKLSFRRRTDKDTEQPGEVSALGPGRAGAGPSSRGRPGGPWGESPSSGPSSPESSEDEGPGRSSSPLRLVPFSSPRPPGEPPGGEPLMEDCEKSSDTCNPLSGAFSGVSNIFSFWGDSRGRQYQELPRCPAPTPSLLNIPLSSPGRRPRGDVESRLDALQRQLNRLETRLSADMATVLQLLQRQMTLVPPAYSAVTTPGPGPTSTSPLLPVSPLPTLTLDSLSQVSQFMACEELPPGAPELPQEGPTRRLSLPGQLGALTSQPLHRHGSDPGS

Row | SMILES | hERG current change (%, negative = inhibition) at 1uM [%]
1 | COc1ccccc1NC(=S)NCC1CCCCC1 | -0.977
2 | O=C(CCn1c(=O)c2cccn2c2cccnc21)N1CCN(c2cccc(Cl)c2)CC1 | -12.1
3 | O=C(Nc1ccccc1[N+](=O)[O-])c1ccc(S(=O)(=O)N2CCCC2)cc1 | 11.8
4 | O=c1c(Cc2ccc(F)cc2)c(O)ccn1C1CC1 | 14.5
5 | COc1ccc(N2CCN(C(=O)c3ccc(NS(=O)(=O)c4ccc(F)c(F)c4)cc3)CC2)cc1 | -8.39
6 | C[C@H](NC(=O)c1nc[nH]c1C(=O)N1CCN(C(=O)OC(C)(C)C)CC1)C(=O)OC(C)(C)C | 5.05
7 | CCOCCCNCc1cccc(OC)c1.O=C(O)C(=O)O | 10.2
8 | COc1nnc(-c2ccc(N3CCOCC3)c(NC(=O)c3ccc(C)cc3)c2)c2ccccc12 | 6.96
9 | COC(=O)Cn1c(=O)c2c(n(Cc3ccccc3)c1=O)N/C(=C/c1ccc(OC)cc1)C2=O | 5.79
10 | S=c1[nH]ncn1NCc1ccc(Cl)cc1Cl | 6.07
11 | CCCCn1c(CCC(=O)O)nc2cc(S(=O)(=O)N(C)C)ccc21 | 11.6
12 | CC(C(=O)NCc1ccccc1)N1C(=O)CN(C)C(=O)c2ccccc21 (stereo not drawn) | 13.7
13 | COc1ccc(-c2c(C(F)(F)F)[nH]n3c(=O)cc(-c4ccccc4)nc23)cc1 | 12.2
14 | Cc1cc(OCC(=O)Nc2ccncc2)ccc1[N+](=O)[O-] | -13.9
15 | Cc1cccc(Cl)c1OCCN1CCCC1.O=C(O)C(=O)O | 11.5
16 | CC(=NC1CCN(Cc2ccccc2)CC1)c1c(O)n(C)c(=O)n(C)c1=O | -5.41
17 | CC(=O)c1cccc(Nc2nc(-c3cccc([N+](=O)[O-])c3)cs2)c1.Cl | 1.25
18 | CCOc1ccc(N(Cc2ccc(OC)c(OC)c2)C(=O)c2ccco2)cc1 | 14.8
19 | CCC1SC2=NC(C)=C(C(=O)OC)C(c3ccc(C)cc3)N2C1=O (stereo not drawn) | 9.29
20 | CCC(C)C(NC(=O)c1ccccc1NC(=O)c1ccco1)C(=O)NNC(=O)c1ccc(OC)cc1 (stereo not drawn) | 5.64
21 | C=CCN(c1ccc(C(=O)N2CCCC2)cc1)S(C)(=O)=O | 4.38
22 | Cc1cccc(NC(=S)NN2CCN(C)CC2)c1C | 11.7

Row | SMILES | hERG current change (%, negative = inhibition) at 1uM [%]
23 | COc1cccc(C(=O)NCCNC(=O)c2ccccn2)c1 | 14.5
24 | CCOC(=O)c1cnc(Cc2ccccc2)[nH]c1=O | 9.42
25 | Cc1ccccc1C1CC(c2cccs2)Nc2nnnn21 (stereo not drawn) | 5.59
26 | Cc1nn(CC(=O)NC(=O)NC2CCCC(C)C2C)c(=O)c(C#N)c1C (stereo not drawn) | 1.69
27 | COC(=O)c1ccc(/C=N/N2CCN(Cc3ccc(C)cc3C)CC2)cc1 | 7.58
28 | C=CCn1c(Oc2cc(C)ccc2C)nc2c1c(=O)n(C)c(=O)n2C | -5.51
29 | Cc1ccc2nnc(Cl)n2n1 | 8.31
30 | CCOc1cc(/C=N/NC(=O)Cn2nc([N+](=O)[O-])cc2C)cc(Br)c1OCc1ccccc1C | 4.41
31 | CCC1CCc2sc(C(=O)NNC(=S)NCC3CCCO3)cc2C1 (stereo not drawn) | 22.1
32 | O=C(O)CCN1C(=O)c2ccc(NC(=O)c3cccs3)cc2C1=O | 11.3
33 | CCOC(=O)/C(=N\Nc1cccc(Cl)c1)Sc1nnc(-c2ccc(OC)cc2)n1C | -5.8
34 | COc1ccc(-c2cc3cc(OC)c(OC)cc3c(C)n2)cc1 | 9.79
35 | COc1ccc(/C=C(\C#N)C(=O)NC(C)c2ccccc2)cc1O (stereo not drawn) | 4.71
36 | CC(=O)NS(=O)(=O)c1ccc(NC(=O)c2ccccc2F)cc1 | -1.14
37 | Cc1ccc(S(=O)(=O)N(C)C)cc1NC(=O)COC(=O)CC1CCCC1 | -32.5
38 | C/C(=N\NC(=S)NCC(C)(C)C)c1cc(F)cc(F)c1O | 17.3
39 | Cc1c(C=O)c(Cl)n(C)c(=O)c1C#N | 19.7
40 | Cc1ccc2oc3c(c(=O)c2c1)C(c1cccc(O)c1)N(c1ccccn1)C3=O (stereo not drawn) | 7.74
41 | C=CCNC(=O)c1ccc(CN(c2ccc(OCC)cc2)S(=O)(=O)c2ccc(C)cc2)cc1 | 7.65
42 | COc1cc(OC)cc(C(=O)OCC(=O)c2ccc(S(=O)(=O)N3CCCCC3)cc2)c1 | 4.66
43 | Cc1nc(=O)c(-c2ccccc2)c(C)n1Cc1ccccc1 | 14.1
44 | Cn1ncc(Br)c1C(=O)N1CCc2ccccc21 | 11.9

Row | SMILES | hERG current change (%, negative = inhibition) at 1uM [%]
45 | CCOC(=O)C1CCCN(C(=O)C2CCCN(S(=O)(=O)c3ccc4c(c3)oc(=O)n4C)C2)C1 (stereo not drawn) | 3.42
46 | CCOc1ccc(S(=O)(=O)Oc2ccc3ccccc3c2)cc1 | 10.9
47 | C=CCn1c(COc2cccc3cccnc23)nnc1SCC(=O)O | 9.5
48 | Cc1c(C)n(CCCN(C)C)c2ncnc(NC3CCCCC3)c12 | 2.62
49 | O=C(CCN1C(=O)S/C(=C\c2cccs2)C1=O)Nc1nccs1 | 11.8
50 | Cc1ccc(S(=O)(=O)N2CCCC2C(=O)Oc2ccccc2)cc1 (stereo not drawn) | 8.2
51 | NC(=O)CCC(NS(=O)(=O)c1ccc(Cl)cc1)C(=O)NCc1ccccc1 (stereo not drawn) | -2.63
52 | CCOC(=O)C1=C(N)n2c(s/c(=C\c3ccco3)c2=O)=C(C(=O)OC(C)C)C1c1ccco1 (stereo not drawn) | 14.3
53 | COc1ccc(C(=O)CCN2CCc3cc(OC)c(OC)cc3C2)cc1.Cl | -34.4
54 | COc1ccc(NC(=O)CNC(=O)c2ccc([N+](=O)[O-])cc2)cc1 | 3.86
55 | COc1ccc(N(C(=O)CCC(=O)Nc2cc(C)on2)C(C(=O)NC2CCCC2)c2ccco2)cc1 (stereo not drawn) | 11.7
56 | CCCn1c(=O)[nH]c(=O)c2c1nc(-c1ccc(OC)c(Br)c1)n2CCOC | -4.24
57 | S=C(Nc1ccc(Br)cc1)NC1CCN(Cc2ccccc2)CC1 | 5.72
58 | O=C(N/N=C/c1ccc(N2CCOCC2)cc1)C1CC1 | 10.9
59 | Cc1ccc(C)c(-c2nnc(NC(=O)c3ccco3)o2)c1 | 5.92
60 | CCOCCn1c(SCc2ccc(C)cc2)nc2c1c(=O)[nH]c(=O)n2C | 18.6
61 | OC(CNCCC1C=Nc2ccccc21)Cn1c2ccc(Cl)cc2c2cc(Cl)ccc21 (stereo not drawn) | 6.24
62 | Cc1oc(-c2ccccc2)nc1CS(=O)CC(=O)NC1CCCC1 (stereo not drawn) | 13.7
63 | CCOc1ccc2[nH]c(=O)c(CN(CCO)C(=O)c3ccc(Br)cc3)cc2c1 | 9.68
64 | CN(CC(=O)Nc1cccc(F)c1)C(=O)c1cccc2ccccc12 | 11.4
65 | OC(c1ccccc1)c1cccnc1 (stereo not drawn) | 1.72
66 | CCOC(=O)c1ccc(NC(=O)c2ccc(NC(=O)C3CCCO3)cc2)cc1 (stereo not drawn) | 2.09

Row | SMILES | hERG current change (%, negative = inhibition) at 1uM [%]
67 | CC(=O)N/N=C/c1cc(C)n(-c2ccc(Br)cc2)c1C | 1.14
68 | CC(/C=C1\SC(=S)N(NC(=O)c2ccc(C)cc2)C1=O)=C\c1ccccc1 | 12.5
69 | CCOc1cc(/C=C2/NC(=O)NC2=O)cc(Br)c1OCc1ccc(C(=O)O)cc1 | 6.09
70 | COC(=O)c1ccc(COc2ccc(/C=N/NC(=O)C(=O)Nc3ccc(OC)cc3)cc2OC)o1 | 9.15
71 | Cc1c(Cl)cccc1NC(=O)C(=O)NNS(=O)(=O)c1ccc(F)cc1 | 3.63
72 | O=S(=O)(c1cc(F)ccc1F)N1CCC2(CC1)OCCN2S(=O)(=O)c1cccs1 | 12
73 | Cc1ccc(NC(=O)C2COc3ccccc3O2)c(C)c1 (stereo not drawn) | 13.6
74 | CCC(=O)Nc1cccc(C(=O)c2ccc(C)c(C)c2)c1 | 7.94
75 | CCc1ccc(CNC(=O)c2ccc(OC)c(OC3CCN(C(C)C)CC3)c2)nc1 | 11.7
76 | COC(=O)CCCC1=CC2=C(c3ccccc3)C(=O)C(C)(OC(=O)C3CCCC3)C(=O)C2=CN1CCc1c[nH]c2ccccc12 (stereo not drawn) | 8.22
77 | COCCCn1c(-c2ccccc2Cl)n[nH]c1=S | 18.5
78 | COc1ccccc1NC(=O)NC1CC(=O)N(c2ccc3c(c2)OCCO3)C1 (stereo not drawn) | 0.982
79 | Cc1ccccc1CC1(CO)CCCN(C(=O)c2cc(Cl)ccc2F)C1 (stereo not drawn) | 14.5
80 | CN(C)c1ccc(/C=N\NC(=O)c2ccc(Cn3cc(Cl)cn3)cc2)cc1 | 6.64
81 | COc1cc(OC)c(NS(=O)(=O)c2c(C)[nH]c(=O)[nH]c2=O)cc1Cl | 12.7
82 | COc1ccccc1NC(=O)COC(=O)COc1ccccc1F | 15.6
83 | COc1ccc(C2=NN(C(=O)c3ccncc3)C(c3ccccc3O)C2)cc1 (stereo not drawn) | 8.12
84 | Cc1ccc(CNC(=O)c2ccc(Cn3cc(-c4ccc(C)cc4)nc3-c3ccncc3)cc2)cc1 | 9.38
85 | Cc1ccc(S(=O)(=O)Nc2ccnc3ccccc23)cc1 | 9.35
86 | CCCCn1c(N)c(Sc2ccc(Cl)cc2)c(=O)[nH]c1=O | -5.13
87 | CCn1nc(NC(=O)C(C)(C)C)c2cc3cccc(C)c3nc21 | 5.4
